Assay results from publication PMC9911399, “Two distinct binding modes provide the RNA-binding protein RbFox with extraordinary sequence specificity”.
Numbering of substitutions follows the chain as printed; changes in the protein carry UniProt numbers. This is one part of the list.

T1: RBFOX1 RRM (Homo sapiens, UniProt Q9NWB1 109-208)
T1 sequence: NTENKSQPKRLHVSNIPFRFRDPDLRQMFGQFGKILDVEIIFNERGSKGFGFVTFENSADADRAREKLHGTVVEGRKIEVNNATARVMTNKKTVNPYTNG

B1: UACUGCU (DNA:RNA)
RNA: GGGAGACCGGAAUUCAGAUUGUCCUACUGCUUUAAAUCCCGUCGUAGCCACCA
DNA 1: CAATCTGAATTCCGGTCTCCC
DNA 2: TGGTGGCTACGACGGGATT
B2: AAACCUA (DNA:RNA)
RNA: B1 RNA with U25A, C27A, U28C, G29C, C30U, U31A
DNA 1: CAATCTGAATTCCGGTCTCCC
DNA 2: TGGTGGCTACGACGGGATT
B3: GGAAAUC (DNA:RNA)
RNA: GGGAGACCGGAAUUCAGAUUGUCCGGAAAUCUUAAAUCCCGUCGUAGCCACCA
DNA 1: CAATCTGAATTCCGGTCTCCC
DNA 2: TGGTGGCTACGACGGGATT
B4: CGGCCUG (DNA:RNA)
RNA: B3 RNA with G25C, A27G, A28C, A29C, C31G
DNA 1: CAATCTGAATTCCGGTCTCCC
DNA 2: TGGTGGCTACGACGGGATT
B5: UGGUAGA (DNA:RNA)
RNA: B3 RNA with G25U, A27G, A28U, U30G, C31A
DNA 1: CAATCTGAATTCCGGTCTCCC
DNA 2: TGGTGGCTACGACGGGATT
B6: CGAUCCC (DNA:RNA)
RNA: B3 RNA with G25C, A28U, A29C, U30C
DNA 1: CAATCTGAATTCCGGTCTCCC
DNA 2: TGGTGGCTACGACGGGATT
B7: GCCUAGU (DNA:RNA)
RNA: B1 RNA with U25G, A26C, G29A, C30G
DNA 1: CAATCTGAATTCCGGTCTCCC
DNA 2: TGGTGGCTACGACGGGATT
B8: AAGGCUA (DNA:RNA)
RNA: B3 RNA with G25A, G26A, A27G, A28G, A29C, C31A
DNA 1: CAATCTGAATTCCGGTCTCCC
DNA 2: TGGTGGCTACGACGGGATT
B9: CGUCUGG (DNA:RNA)
RNA: B3 RNA with G25C, A27U, A28C, A29U, U30G, C31G
DNA 1: CAATCTGAATTCCGGTCTCCC
DNA 2: TGGTGGCTACGACGGGATT
B10: GCCUUGU (DNA:RNA)
RNA: B1 RNA with U25G, A26C, G29U, C30G
DNA 1: CAATCTGAATTCCGGTCTCCC
DNA 2: TGGTGGCTACGACGGGATT
B11: GAACGAU (DNA:RNA)
RNA: B1 RNA with U25G, C27A, U28C, C30A
DNA 1: CAATCTGAATTCCGGTCTCCC
DNA 2: TGGTGGCTACGACGGGATT
B12: CUGCACA (DNA:RNA)
RNA: B3 RNA with G25C, G26U, A27G, A28C, U30C, C31A
DNA 1: CAATCTGAATTCCGGTCTCCC
DNA 2: TGGTGGCTACGACGGGATT
B13: CCACUCA (DNA:RNA)
RNA: B3 RNA with G25C, G26C, A28C, A29U, U30C, C31A
DNA 1: CAATCTGAATTCCGGTCTCCC
DNA 2: TGGTGGCTACGACGGGATT
B14: GUUCAGG (DNA:RNA)
RNA: B3 RNA with G26U, A27U, A28C, U30G, C31G
DNA 1: CAATCTGAATTCCGGTCTCCC
DNA 2: TGGTGGCTACGACGGGATT
B15: GAAAAAA (DNA:RNA)
RNA: B3 RNA with G26A, U30A, C31A
DNA 1: CAATCTGAATTCCGGTCTCCC
DNA 2: TGGTGGCTACGACGGGATT
B16: CUGCGUC (DNA:RNA)
RNA: B3 RNA with G25C, G26U, A27G, A28C, A29G
DNA 1: CAATCTGAATTCCGGTCTCCC
DNA 2: TGGTGGCTACGACGGGATT
B17: UCACACU (DNA:RNA)
RNA: B1 RNA with A26C, C27A, U28C, G29A
DNA 1: CAATCTGAATTCCGGTCTCCC
DNA 2: TGGTGGCTACGACGGGATT
B18: AGGCUAC (DNA:RNA)
RNA: B3 RNA with G25A, A27G, A28C, A29U, U30A
DNA 1: CAATCTGAATTCCGGTCTCCC
DNA 2: TGGTGGCTACGACGGGATT
B19: CGGAAAA (DNA:RNA)
RNA: B3 RNA with G25C, A27G, U30A, C31A
DNA 1: CAATCTGAATTCCGGTCTCCC
DNA 2: TGGTGGCTACGACGGGATT
B20: ACCUCUA (DNA:RNA)
RNA: B1 RNA with U25A, A26C, G29C, C30U, U31A
DNA 1: CAATCTGAATTCCGGTCTCCC
DNA 2: TGGTGGCTACGACGGGATT
B21: CAACGGC (DNA:RNA)
RNA: B3 RNA with G25C, G26A, A28C, A29G, U30G
DNA 1: CAATCTGAATTCCGGTCTCCC
DNA 2: TGGTGGCTACGACGGGATT
B22: GUACUAC (DNA:RNA)
RNA: B3 RNA with G26U, A28C, A29U, U30A
DNA 1: CAATCTGAATTCCGGTCTCCC
DNA 2: TGGTGGCTACGACGGGATT
B23: CUACCUA (DNA:RNA)
RNA: B3 RNA with G25C, G26U, A28C, A29C, C31A
DNA 1: CAATCTGAATTCCGGTCTCCC
DNA 2: TGGTGGCTACGACGGGATT
B24: UUGGAAG (DNA:RNA)
RNA: B3 RNA with G25U, G26U, A27G, A28G, U30A, C31G
DNA 1: CAATCTGAATTCCGGTCTCCC
DNA 2: TGGTGGCTACGACGGGATT
B25: GCUGAUA (DNA:RNA)
RNA: B3 RNA with G26C, A27U, A28G, C31A
DNA 1: CAATCTGAATTCCGGTCTCCC
DNA 2: TGGTGGCTACGACGGGATT
B26: GUCCCUC (DNA:RNA)
RNA: B3 RNA with G26U, A27C, A28C, A29C
DNA 1: CAATCTGAATTCCGGTCTCCC
DNA 2: TGGTGGCTACGACGGGATT
B27: ACUGUGA (DNA:RNA)
RNA: GGGAGACCGGAAUUCAGAUUGUCCACUGUGAUUAAAUCCCGUCGUAGCCACCA
DNA 1: CAATCTGAATTCCGGTCTCCC
DNA 2: TGGTGGCTACGACGGGATT
B28: UUGUGGC (DNA:RNA)
RNA: B1 RNA with A26U, C27G, C30G, U31C
DNA 1: CAATCTGAATTCCGGTCTCCC
DNA 2: TGGTGGCTACGACGGGATT
B29: ACGCCGG (DNA:RNA)
RNA: B27 RNA with U27G, G28C, U29C, A31G
DNA 1: CAATCTGAATTCCGGTCTCCC
DNA 2: TGGTGGCTACGACGGGATT
B30: UACUCUG (DNA:RNA)
RNA: B1 RNA with G29C, C30U, U31G
DNA 1: CAATCTGAATTCCGGTCTCCC
DNA 2: TGGTGGCTACGACGGGATT
B31: GGAAAGU (DNA:RNA)
RNA: B3 RNA with U30G, C31U
DNA 1: CAATCTGAATTCCGGTCTCCC
DNA 2: TGGTGGCTACGACGGGATT

Each binder was assayed against T1, RBFOX1 RRM (assay: EMSA; HiTS-Eq, 1 nM pool, 10 min; buffer printed only for the single-RNA assays: 10 mM Tris pH 7.5, 150 mM NaCl, 3.4 mM EDTA, 0.001% NP-40, 30 C). Conditions: tags: His6 N-terminal (pET28a); label: 5' 32P.
How it was run: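 Purified RbFox RRM, wild type or mutant, was incubated for 10 min in 50 µL with 1 nM of a 5′-radiolabelled RNA pool carrying 7 randomized nucleotides, whose flanks were annealed to DNA oligonucleotides, over a series of increasing protein concentrations. Unbound RNA was resolved on 8% native PAGE, cut out, reverse-transcribed, barcoded by PCR and sequenced on an Illumina HiSeq 2500. Relative association constants were derived from changes in read counts for each RNA species versus the control reaction and normalised to the cognate motif.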

| Binder | binding signal |
| --- | --- |
| B1 | 0.0129 KA relative to UGCAUGU |
| B2 | 0.00216 KA relative to UGCAUGU |
| B3 | 0.0138 KA relative to UGCAUGU |
| B4 | 0.0257 KA relative to UGCAUGU |
| B5 | 0.0163 KA relative to UGCAUGU |
| B6 | 0.00576 KA relative to UGCAUGU |
| B7 | 0.0103 KA relative to UGCAUGU |
| B8 | 0.00647 KA relative to UGCAUGU |
| B9 | 0.0169 KA relative to UGCAUGU |
| B10 | 0.0256 KA relative to UGCAUGU |
| B11 | 0.0117 KA relative to UGCAUGU |
| B12 | 0.0115 KA relative to UGCAUGU |
| B13 | 0.0037 KA relative to UGCAUGU |
| B14 | 0.0107 KA relative to UGCAUGU |
| B15 | 0.000762 KA relative to UGCAUGU |
| B16 | 0.0157 KA relative to UGCAUGU |

| Binder | binding signal |
| --- | --- |
| B17 | 0.00248 KA relative to UGCAUGU |
| B18 | 0.0132 KA relative to UGCAUGU |
| B19 | 0.0186 KA relative to UGCAUGU |
| B20 | 0.00197 KA relative to UGCAUGU |
| B21 | 0.00622 KA relative to UGCAUGU |
| B22 | 0.00345 KA relative to UGCAUGU |
| B23 | 0.00199 KA relative to UGCAUGU |
| B24 | 0.0207 KA relative to UGCAUGU |
| B25 | 0.0206 KA relative to UGCAUGU |
| B26 | 0.00747 KA relative to UGCAUGU |
| B27 | 0.0104 KA relative to UGCAUGU |
| B28 | 0.0105 KA relative to UGCAUGU |
| B29 | 0.00777 KA relative to UGCAUGU |
| B30 | 0.0127 KA relative to UGCAUGU |
| B31 | 0.0146 KA relative to UGCAUGU |
